# Several values for one entry are separate records, joined by “and”; a condition that tells them apart may be missing. Equal values may be shown once. Some of the results follow. Results with a measured potency or affinity are listed apart.
# Tested on: Pseudomonas aeruginosa
# Conditions: Concentration 32 ug.mL-1, ASSAY_TEST Inhibition of Bacterial Growth, detection method Absorption (OD600), MEDIA CAMHB, plate type 384well, NBS, CORNING #3640, time 18 hr
Structure (SMILES),Inhibition,Inhibition (32 ug/mL)
Cc1ccc(/C=N/NC(=O)c2c[nH]c3ccccc23)cc1,22.38%,
Cc1nn(-c2ccccc2)c2ncnc(Nc3ccccc3)c12,25.35%,
Cc1ccc2nc(Cl)c(/C=N/OCc3ccccc3)cc2c1,5.37%,
N#Cc1c(-c2ccccc2)c2c(ccc3ccccc32)oc1=O,16.46%,
N#Cc1c(Cl)nc(Sc2ccccc2)c(C#N)c1-c1ccccc1,14.08%,
COc1ccc(C2c3ccc4ccccc4c3OC(=NBr)C2(Br)C#N)cc1 (stereo not given),3.27%,
C#CCNc1cccc(F)n1,15.6%,
CN(C)c1nc(Cl)c(C#N)c(-c2ccccc2)c1C#N,14.67%,
O=C(N/N=C/c1c[nH]c2ccccc12)c1ccc(Cl)cc1,21.47%,
N#CC1=C(N)Oc2c(ccc3ccccc23)C1c1c(Cl)cccc1Cl (stereo not given),24.94%,
COc1nc2ccc(C)cc2cc1C=O,-3.42%,
Cc1ccc(C2CC2(N)C(=O)O)cc1.Cl (stereo not given),34.33%,
CCOC(=O)C1=C(C)OC(N)=C(C#N)C1c1ccccc1 (stereo not given),14.54%,
CC(=O)n1cc(/C=C2\N=C(c3ccccc3)OC2=O)c2ccccc21,14.31%,
COc1nc(Cl)c(C#N)c(-c2ccccc2)c1C#N,1.41%,
C#CCNc1nc(Cl)c(C#N)c(-c2ccccc2)c1C#N,-6.56%,
CCOC(=O)C1=C(C)OC(N)=C(C#N)C1c1cccs1 (stereo not given),1.21%,
COc1ccc2c(c1)cc(CN(C)C)n2C,32.78%,
COc1ccc(C=C2N=C(c3ccccc3)SC2=O)cc1,50.12%,
COc1cccc(C2c3c(ccc4ccccc34)OC(=N)C2(Br)C#N)c1 (stereo not given),,26.4% and 15.62%
Cc1ccc(CNNC(=O)c2cc3ccccc3n2C)cc1,-0.3%,
N#CC1=C(Cl)Oc2c(ccc3ccccc23)C1c1ccc([N+](=O)[O-])cc1 (stereo not given),42.64%,

Structure (SMILES),Inhibition,Inhibition (32 ug/mL)
O=C(N/N=C/c1ccc(Cl)cc1)c1cc2ccccc2[nH]1,9.93%,
CC(=O)Nc1nn(C)c2nc3nc4c(c(N)c3cc12)CCCC4,,10.22% and 17.37%
O=C(Cc1c[nH]c2ccccc12)NN=C1CCCCCC1,8.5%,
N#CC1=C(N)Oc2ccc3ccccc3c2C1c1ccccc1[N+](=O)[O-] (stereo not given),17.18%,
N#Cc1cc(C#N)c(Cl)nc1Cl,19.49%,
COc1ccc(-c2c(C#N)c(=O)oc3c2ccc2ccccc23)cc1,,-15.02% and -12.79%
NNC(=O)C1(NC(=O)c2ccccc2)CC1c1cccc(O)c1 (stereo not given),38.87%,
CCCC(C)NNC(=O)c1cc2ccccc2[nH]1 (stereo not given),11.51%,
CC(C)(C)OC(=O)Nc1ncccc1Br,16.38%,
COc1ccc(C2C(C#N)=C(N)Oc3ccc4ccccc4c32)cc1 (stereo not given),17.09%,
CCOC(=O)c1c(C)nc(NC2CCN(Cc3ccccc3)CC2)c(C#N)c1-c1ccccc1,12.24%,
N#CC1(Br)C(=NBr)Oc2ccc3ccccc3c2C1c1ccccc1 (stereo not given),17.54%,
N#Cc1cc(C#N)c(N2CCC(O)CC2)nc1N,3.85%,
CCOC(=O)c1cc2ccccc2[nH]1,23.43%,
CSC1=NC2(CC2c2ccccc2)C(=O)N1C (stereo not given),22.18%,
CC1Cc2c(Br)nc3nc4c(c(N)c3c2NC1=O)CCCC4 (stereo not given),16.06%,
O=C(NN=Cc1c[nH]c2ccccc12)c1cccc2ccccc12,29.57%,
Nc1c2c(nc3c1C(c1ccc(Cl)c(Cl)c1)c1ccc4ccccc4c1O3)CCCC2 (stereo not given),14.97%,
Cn1c(C(=O)NCc2ccccc2)cc2cc(OCCCC3CCN(Cc4ccccc4)CC3)ccc21,20.77%,
CCOC(=O)C1=C(C)OC(N)=C(C#N)C1c1cccnc1 (stereo not given),6.6%,
N#CC1=C(N)Oc2c(ccc3ccccc23)C1c1cccc([N+](=O)[O-])c1 (stereo not given),39.53%,
Cc1ccc(C(O)SNNc2ncnc3c2cnn3-c2ccccc2)cc1 (stereo not given),34.06%,

Structure (SMILES),Inhibition,Inhibition (32 ug/mL)
CCOC(=O)C1=C(C)Oc2nc3c(c(N)c2C1c1nccn1C)CCCCC3 (stereo not given),20.83%,
COc1ccc2c(c1)cc(CN(C)Cc1cn(Cc3ccccc3)nn1)n2C,13.96%,
O=C(O)n1ccc2ccccc21,12.53%,
COc1nc(N)c(C#N)cc1C#N,6.84%,
C#CCNC(=O)c1cc2cc(OCCCC3CCN(Cc4ccccc4)CC3)ccc2[nH]1,5.31%,
CCOC(=O)/C(C#N)=C\c1ccc([N+](=O)[O-])cc1,5.37%,
C=CCNc1[nH]c2ccc(O)cc2c1C#N,13.28%,
CCOC(=O)c1c(C)nc2nc3c(c(N)c2c1-c1ccc(OC)cc1)CCCCCC3,-8.56%,
C#CCNc1nc(OC)c(C#N)c(-c2ccccc2)c1C#N,3.44%,
COc1cc(C2c3c(nc4c(c3N)CCC4)Oc3ccc4ccccc4c32)ccc1O (stereo not given),49.01%,
N#Cc1c(N)nc2c(c1-c1ccccc1)CN(Cc1ccccc1)CC2,41.1%,
CC1=C(C(=O)N2[C@@H]3C[C@H]4CCC3(CS2(=O)=O)C4(C)C)C(c2ccccc2)C(C#N)=C(N)O1 (stereo not given in full),-5.19%,
COc1nc2nc3c(c(N)c2cc1C#N)CCCC3.Cl,14.96%,
C#CCN(C)Cc1cc2cc(O)ccc2n1C.Cl,24.88%,
Cn1ccnc1C1c2ccc3ccccc3c2Oc2nc3c(c(N)c21)CCCCC3 (stereo not given),-4.21%,
Cc1nc(NO)c2c(C)nn(-c3ccccc3)c2n1,26.61%,
CCCC(=O)NCc1c(-c2ccc(Cl)cc2)nc2ccccn12,-3.93%,
CNN=C1N=C(SCc2ccccc2)SC1=O,20.09%,
Cc1nc2c3c(C)nn(-c4ccccc4)c3ncn2n1,22.75%,
CCOC(=O)c1cn(C)c2ccccc12,29.33%,
C/C(=N\NC(=O)c1cc2ccccc2n1Cc1ccccc1)C1CC1,20.86%,
N#Cc1c(N)nc(NCCC2CCN(Cc3ccccc3)CC2)c(C#N)c1-c1ccccc1,7.52%,

Structure (SMILES),Inhibition,Inhibition (32 ug/mL)
O=C(Cc1c[nH]c2ccccc12)NNCCc1ccccc1,7.4%,
Cc1cnc(NC(=O)OC(C)(C)C)c(Br)c1,17.25%,
COC1=C(C#N)CC(C)C(=O)N1 (stereo not given),8.91%,
O=C(N/N=C/c1c[nH]c2ccccc12)C(c1ccccc1)c1ccccc1,38.29%,
C=C=CCN(C)Cc1cc2ccccc2n1C.O=C(O)C(=O)O,5.5%,
COc1cc(C2c3ccc4ccccc4c3Oc3nc4c(c(N)c32)CCCC4)ccc1O.Cl (stereo not given),15.76%,
C#CCN(C)c1nc(Sc2ccccc2)c(C#N)c(-c2ccccc2)c1C#N,38.94%,
Cc1n[nH]c2c1C(c1ccc([N+](=O)[O-])cc1)C(C#N)=C(N)O2 (stereo not given),-6.5%,
N#Cc1c(-c2ccccc2)c2ccc3ccccc3c2oc1=O,3.94%,
C=C1CNc2c(C#N)c(-c3ccccc3)c(C#N)c(=N)n21,4.26%,
N#Cc1c(N)nc(NCCCC2CCN(Cc3ccccc3)CC2)c(C#N)c1-c1ccccc1,38.45%,
CCOC(=O)/C(C#N)=C\c1ccc(C)cc1,23.9%,
c1ccc(Cn2ccc3ccccc32)cc1,42.69%,
COc1ccc2c(c1)cc(CNc1ccccc1)n2C,15.4%,
COc1ccc2c(ccn2C)c1,28.61%,
CCOC(=O)c1c(C)[nH]c2ccc(OC)cc12,15.28%,
N#C/C(=C\c1ccccc1Cl)C(=O)c1ccccc1,14.55%,
CCOC(=O)N/N=C/c1ccccc1,19.67%,
Cl.NC1(C(=O)O)CC1c1cccc(Cl)c1 (stereo not given),34.52%,
O=C1NC(=O)C(=Cc2ccccc2)N1,38.65%,
C#CCNc1nc(N)c(C#N)cc1C#N,9.02%,
N#Cc1cc(C#N)c(Cl)nc1N,7.47%,

Structure (SMILES),Inhibition,Inhibition (32 ug/mL)
O=c1oc2cc(O)ccc2cc1-c1ccccc1,23.04%,
Cl.Nc1c2c(nc3c1C(c1c(Cl)cccc1Cl)c1ccc4ccccc4c1O3)CCCC2 (stereo not given),23.67%,
Cc1ccc2nc(Cl)c(/C=N/N)cc2c1,13.38%,
N#Cc1cc(C#N)c(NC2CCN(Cc3ccccc3)CC2)nc1N,,17% and 20.26%
Cn1ccnc1C1C(C#N)=C(N)Oc2c1ccc1cccnc21 (stereo not given),9.47%,
CCOc1nc(N)c(C#N)cc1C#N.Cl,-17.7%,
C#CCN(C)c1nc(N)c(C#N)cc1C#N,,13.14% and 18.1%
Cc1ccc(C2c3c(Cl)nnnc3Oc3ccc4ccccc4c32)cc1 (stereo not given),43.25%,
NC1(C(=O)O)CC1c1ccc2c(c1)OCO2 (stereo not given),20.59%,
Cc1cnc2ccc(Cl)cn12,42.49%,
N#Cc1c(NC2CCC(Cc3ccccc3)CC2)nc(NC2CCN(Cc3ccccc3)CC2)c(C#N)c1-c1ccccc1 (stereo not given),1.36%,
Cl.ClCCCN1CCCCC1,6.39%,
C#CCNc1ccc(Cl)nn1,35.63%,
CNC(=O)NC1(C(=O)O)CC1c1ccccc1 (stereo not given),50.33%,
C=C1CN(C)c2c(C#N)cc(C#N)c(=S)n21,16.25%,
COc1ccc(C2C(C#N)=C(Cl)Oc3c2ccc2ccccc32)cc1OC (stereo not given),-12.7%,
O=Cc1c[nH]c2ccccc12 [3-FORMYLINDOLE],41.82%,
CCOC(=O)c1c(C)nc(N)c(C#N)c1-c1cccs1,6.4%,
N#CC1=C(N)Oc2ccc3ccccc3c2C1c1ccc(O)cc1 (stereo not given),18.24%,
c1ccc(COc2ccc3[nH]ccc3c2)cc1,34.01%,
C#CCN(C)Cc1cc2cc(OCCCCC3CCN(Cc4ccccc4)CC3)ccc2n1C,12.81%,
Cn1cc(/C=C2\NC(=S)NC2=O)c2ccccc21,30.49%,
